Values joined by “and” are separate entries in the source; they are usually repeats but may differ in a detail not shown here. Equal entries are not always repeated. Among all 73,000 compounds or so, about 2,500 (3.4%) were called active. Inconclusive results, whose numbers are uncertain, are shown with a selection of clear calls. The call rests on the fitted dose curve; in most records, active means well fitted inhibition curve with a large enough effect; inconclusive means small, poorly fitted or top-dose-only effect; inactive means no such curve, though single readings can be large or run the other way. Potencies beside an inconclusive call are fits to weak or partial responses and may not hold up.
biological target: 3-hydroxyacyl-CoA dehydrogenase type-2 (Homo sapiens) (UniProt Q99714); experiment: qHTS Assay for Inhibitors of HADH2 (Hydroxyacyl-Coenzyme A Dehydrogenase, Type II); conditions: recombinant HADH2, NADH fluorescence, beta-hydroxybutyryl-CoA; activity change, negative = inhibition: at 57.1 µM (top of the series); further: nearly all actives have a fitted effect of over 60% in size
In short: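 20 nM HADH2 + cpd, 15 min RT; add 1 mM NAD+/90 uM beta-hydroxybutyryl-CoA; kinetic fluorescence 360/450 nm, 4 min. Tris-HCl pH 9.0, 0.01% Tween-20.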
On the % scale 0 is the no-effect control and ±100 the full control effect; potency means the concentration at half of the fitted maximal effect; tags describe the fitted curve by direction and shape.

UniProt Q99714, sequence (Q99714 whole entry, looked up): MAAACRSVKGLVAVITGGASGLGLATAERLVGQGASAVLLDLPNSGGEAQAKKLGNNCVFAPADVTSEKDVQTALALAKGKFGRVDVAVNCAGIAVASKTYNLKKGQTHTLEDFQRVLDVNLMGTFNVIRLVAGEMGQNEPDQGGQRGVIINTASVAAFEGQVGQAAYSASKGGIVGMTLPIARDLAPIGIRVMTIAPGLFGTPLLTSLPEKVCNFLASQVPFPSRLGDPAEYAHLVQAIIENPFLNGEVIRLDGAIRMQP
UniProt Q99714, sequence (Q99714 whole entry, looked up): as above

| Compound | Potency | activity change, negative = inhibition |
| --- | --- | --- |
| COc1cccc(-c2ccc3ncnc(N(C)Cc4ccco4)c3c2)c1 | inconclusive: 39.8 µM [inhibitor, single point] | – |
| N#CCCn1c(=O)c(CCc2ccccc2)nc2cnc(Oc3cccc(Cl)c3)nc21 | inactive | – |
| O=C(CCNS(=O)(=O)c1cccs1)NCc1ccco1 | inconclusive: 25.1 µM [inhibitor, partial curve] | – |
| Cc1ccc(-c2nnn(CC(=O)NCC3COCCO3)n2)o1 (configuration not stated) | inactive | – |
| CC(C)C1N=C2c3ccccc3N=C(SCC(=O)NCCc3ccc(S(N)(=O)=O)cc3)N2C1=O (configuration not stated) | active: 25.1 µM | – |
| COC(=O)c1[nH]c2ccc(C)cc2c1NC(=O)CCN1CCN(Cc2ccc3c(c2)OCO3)CC1 | inconclusive: 39.8 µM [inhibitor, single point] | – |
| C(=N\n1cncn1)/c1ccc(N2CCOCC2)cc1 | inconclusive: 25.1 µM [inhibitor, single point] | – |
| COc1ccccc1NC(=O)Cn1cnc2sc(C(=O)NCc3ccco3)c(C)c2c1=O | inconclusive: 39.8 µM [inhibitor, single point] | – |
| CCc1ccc(NC(=O)c2cc(-c3ccc(OC)cc3)on2)cc1 | inconclusive: 25.1 µM [inhibitor, single point] | – |
| CCC(=O)NCCn1c(C)cc2ccccc21 | inactive | – |
| O=C1C2=C(Nc3cc([N+](=O)[O-])ccc3N2)O[C@@H]1c1ccc([C@H]2OC3=C(Nc4ccc([N+](=O)[O-])cc4N3)C2=O)cc1 | active: 3.16 µM | – |
| COc1cc(C2C3=C(CC(c4ccco4)CC3=O)Nc3ccccc3N2C(C)=O)cc(OC)c1OC (configuration not stated) | inconclusive: 20 µM [inhibitor, partial curve] | – |
| Nn1c(SCC(=O)Nc2ccc(S(=O)(=O)N3CCCC3)cc2)nnc1C(F)(F)F | inactive | – |
| OC1CCN(c2c3c(nc4cc(-c5cccc(F)c5)nn24)CCCC3)CC1 | inconclusive: 39.8 µM [inhibitor, single point] | – |
| Oc1ccc([C@@H]2CNCc3sccc32)cc1O | active: 0.316 µM | – |
| CCCc1cc(=O)n2[nH]c(NCc3c(F)cccc3Cl)nc2n1 | inactive | – |
| O=C(CSc1nc2ccccc2s1)N1CCOCC1 | inactive | – |
| CCOC(=O)C(C)c1nn(C)c(=O)c2ccccc12 (configuration not stated) | inactive | – |
| CCOC(=O)/C=C1\CC(=O)Nc2nonc2N1 | inactive | – |
| COc1ccc(CCNC(=O)CSc2nnnn2Cc2ccc3c(c2)OCO3)cc1OC | inactive | – |
| COc1ccc2[nH]c(=O)c(CN(CC3CCCO3)C(=O)Nc3ccccc3)cc2c1 (configuration not stated) | inconclusive: 39.8 µM [inhibitor, single point] | – |
| CCC[C@@H]1C[C@@]1(CCC)[C@@H](NC(=O)Oc1ccccc1)c1ccc(C(=O)OC)cc1 | inactive | – |
| O=c1c2cc(N3CCOCC3)ccc2[nH]c(=S)n1CCCN1CCCC1 | inconclusive: 39.8 µM [inhibitor, single point] | – |
| CCc1nnc(NC(=O)CSc2nnc(-c3ccoc3C)n2-c2cccc(C)c2)s1 | inactive | – |
| CCCCCc1c(C)nc(NCc2ccccc2)[nH]c1=O | inactive | – |
| Cc1ccccc1NC(=O)CN1C(=O)COc2ccc(Cl)cc21 | inactive | – |

| Compound | Potency | activity change, negative = inhibition |
| --- | --- | --- |
| COCCN(CCOC)c1nc(C)nc2c1nc(-c1ccccc1)n2CC1CCN(C)CC1 | inconclusive: 15.8 µM [inhibitor, single point] | – |
| Cc1cc(C)n(-c2ccc(Cl)c(C(=O)O)n2)n1 | inconclusive: 6.31 µM [inhibitor, single point] | – |
| CCOc1cc(C)c(S(=O)(=O)Nc2ccc(Cl)cn2)cc1C | inactive | – |
| Cc1cc(N2CCCC2)nc(-c2ccccc2O)n1 | active: 31.6 µM | – |
| Cn1nc(CC(=O)NCCN2C(=O)CSC2=O)c2ccccc2c1=O | inconclusive: 6.31 µM [inhibitor, single point] | – |
| CCCC(=O)Nc1c(C(=O)OCC)[nH]c2ccccc12 | inactive | – |
| O=C(NCc1ccccn1)c1cnc2sccn2c1=O | inconclusive: 25.1 µM [inhibitor, single point] | – |
| Nc1ccc(N2CCCCCC2)cc1 | inconclusive: 12.6 µM [inhibitor, partial curve] | – |
| CCN(CC)c1nc(N)c2c(N)nc3c(c2c1C#N)CC(c1ccccc1)O3 (configuration not stated) | inconclusive: 39.8 µM [inhibitor, single point] | – |
| O=C(CSc1ccc2nnc(-c3ccc(F)cc3)n2n1)N1CCCCC1 | inconclusive: 25.1 µM [inhibitor, single point] | – |
| COc1ccc(Cc2nnn(CC(=O)O)n2)cc1 | inactive | – |
| COCCSc1nnc(NS(=O)(=O)Cc2ccccc2)s1 | inconclusive: 25.1 µM [inhibitor, single point] | – |
| CCCCOCCCNC(=O)C1CCCCC1 | – | inactive: -0.163% [at 11.4 µM] |
| COc1ccc(-c2c(C)oc3c(CN4CCCCC4C)c(O)ccc3c2=O)cc1OC (configuration not stated) | inconclusive: 31.6 µM [inhibitor, single point] | – |
| Cc1ccc(S(=O)(=O)Nc2ccccc2C(=O)O)c(C)c1 | inconclusive: 31.6 µM [inhibitor, single point] | – |
| O=C(O)c1c(Br)c(Br)c(Br)c(Br)c1C1c2ccc(O)cc2Oc2cc(O)ccc21 | active: 1.58 µM | – |
| NC(=O)c1c(NC(=O)c2cc3ccccc3o2)sc2c1CCC2 | inactive | – |
| CC(C)Cc1nc2oc3c(N4CCN(CCO)CC4)ncnc3c2c2c1CCCC2 | inconclusive: 6.31 µM [inhibitor, single point] | – |
| CC1(c2ccccn2)Nc2ccccc2-c2nc3ccccc3n21 (configuration not stated) | active: 31.6 µM | – |
| Cc1ccc2oc(C(=O)NCc3ccc4c(c3)OCO4)c(C)c2c1 | inconclusive: 31.6 µM [inhibitor, single point] | – |
| CC(C)(CS)C(=O)N1CCC[C@H]1C(=O)O | inconclusive: 5.01 µM [inhibitor, full curve, poor fit] | – |
| Cc1ccc(C2=CSC3=NCCN23)c(C)c1 | inactive | – |
| CCOCCCNS(=O)(=O)c1ccc(Br)cc1 | inactive | – |
| Cc1cc(CN2CCOCC2)c(O)c(C2(C)CCCCC2)c1 | inconclusive: 0.199 µM [inhibitor, full curve, poor fit] | – |
| O=C(CCN1CCc2ccccc2C1)c1ccc2c(c1)OCCO2 | inactive | – |
| CCC1=C/C(=C\c2ccc3c(c2)OCO3)C(=O)S1 | active: 31.6 µM | – |

| Compound | Potency | activity change, negative = inhibition |
| --- | --- | --- |
| CCc1c2c(nc3cccc(SC)c13)COC2 | inconclusive: 39.8 µM [inhibitor, single point] | – |
| Cn1c(N)c(S(=O)(=O)c2ccc(Br)cc2)c2nc3ccccc3nc21 | active: 31.6 µM | – |
| COc1ccccc1OCCCc1c(C)n[nH]c1C | inconclusive: 15.8 µM [inhibitor, partial curve] | – |
| COc1ccc(CNc2nc(-c3ccoc3)nc3ccccc23)c(OC)c1 | active: 20 µM | – |
| CS(=O)(=O)c1ccc2nc(NC(=O)C3COc4ccccc4O3)sc2c1 (configuration not stated) | inconclusive: 5.01 µM [inhibitor, full curve, poor fit] | – |
| CCn1c(C)nc2cc(-c3nnc(-c4c(-c5ccccc5)noc4C)o3)ccc21 | inconclusive: 39.8 µM [inhibitor, single point] | – |
| Cc1ccc2c(c1)NC(=O)C(CC(=O)NCCCN1CCc3ccccc3C1)O2 (configuration not stated) | inconclusive: 25.1 µM [inhibitor, partial curve] | – |
| COc1ccc(S(=O)(=O)NCCSc2ccccc2)cc1OC | inconclusive: 3.98 µM [inhibitor, single point] | – |
| O=c1c2ccccc2c(/C=N/n2cnnc2)c(O)n1-c1ccccc1F | inconclusive: 31.6 µM [inhibitor, partial curve] | – |
| O=C(O)CSc1ccc([N+](=O)[O-])cc1[N+](=O)[O-] | – | inactive: -10% [at 11.4 µM] |
| C=C1c2ccc(C)cc2NC(=O)N1c1ccccc1 | inconclusive: 31.6 µM [inhibitor, single point] | – |
| CCN1C(=O)CS/C1=C(\C#N)S(=O)(=O)c1ccccc1 | inconclusive: 3.98 µM [inhibitor, full curve] | – |
| CCN1CCN(S(=O)(=O)c2cc(OC)ccc2OC)CC1 | inactive | – |
| CN(C)c1nc(N(C)C)nc(N(C)C)n1 | inactive and inconclusive: 316 nM [inhibitor, partial curve] | – |
| Cc1cc(C)nc(/N=c2/ssnc2Cl)c1 | active: 0.126 µM | – |
| O=c1[nH][nH]c(=O)c2cc(N3CCCC3)ccc12 | inconclusive: 25.1 µM [inhibitor, partial curve] | – |
| O=C(Cc1cccs1)Nc1nc2c(s1)CCCC2 | inconclusive: 20 µM [inhibitor, single point] | – |
| O=c1[nH]c(NCCO)nc2c1C1(CCCCC1)Cc1ccccc1-2 | inconclusive: 25.1 µM [inhibitor, partial curve] | – |
| O=C(c1c(Cl)nc2sccn12)N(C(=O)c1c(Cl)nc2sccn12)c1ccc(Cl)cn1 | inconclusive: 10 µM [inhibitor, single point] | – |
| O=C1CC(N2CCN(S(=O)(=O)c3cccc(C(F)(F)F)c3)CC2)C(=O)N1Cc1ccccc1 (configuration not stated) | inactive | – |
| COC(=O)c1cnn2c(C(F)(F)F)cc(-c3ccco3)nc12 | active: 31.6 µM | – |
| O=C(c1cc2ccccn2n1)N1CCN(Cc2ccccc2)CC1 | inactive | – |
| Cc1c(O)ccc(C(=O)COc2ccccc2F)c1O | inconclusive: 31.6 µM [inhibitor, single point] | – |
| Cc1nn(-c2ccccc2)c(Cl)c1C1C(C#N)=C(N)Oc2n[nH]c(C)c21 (configuration not stated) | inconclusive: 6.31 µM [inhibitor, partial curve] | – |
| O=C(NCC1CCCO1)c1ccc2c(c1)OCO2 (configuration not stated) | inconclusive: 31.6 µM [inhibitor, single point] | – |
